Laboratory results from the supplement of paper PMC11876631.
Changes are numbered by the printed parent chain. Names and notes keep the numbering of the source. ± gives the standard deviation of the averaged measurements. Laboratory Escherichia coli strains with one amino-acid change in an essential protein, pooled on minimal glucose agar with carbenicillin or gentamicin at twice the control MIC (plus kanamycin and chloramphenicol for the plasmids), 48 h. Fold change of barcode share against drug-free plates; higher = less susceptible. Active = above 20 in both replicates (the paper's putatively resistant). '<' = one read or none on drug, '>' = one read or none on a drug-free plate. Shares are relative, so most strains fall below 1 when a few take over. Listed are strains with at least 15 reads on both drug-free plates, and hits; most hits rest on fewer reference reads. Replicate rank correlation about 0.5. Edits are read from barcodes.

B1: metB V211A (protein)
chain: MTRKQATIAVRSGLNDDEQYGCVVPPIHLSSTYNFTGFNEPRAHDYSRRGNPTRDVVQRALAELEGGAGAVLTNTGMSAIHLVTTVFLKPGDLLVAPHDCYGGSYRLFDSLAKRGCYRVLFVDQGDEQALRAALAEKPKLVLVESPSNPLLRVVDIAKICHLAREVGAVSVVDNTFLSPALQNPLALGADLVLHSCTKYLNGHSDVVAGVAIAKDPDVVTELAWWANNIGVTGGAFDSYLLLRGLRTLVPRMELAQRNAQAIVKYLQTQPLVKKLYHPSLPENQGHEIAARQQKGFGAMLSFELDGDEQTLRRFLGGLSLFTLAESLGGVESLISHAATMTHAGMAPEARAAAGISETLLRISTGIEDGEDLIADLENGFRAANKG
B2: metA F140A (protein)
chain: MPIRVPDELPAVNFLREENVFVMTTSRASGQEIRPLKVLILNLMPKKIETENQFLRLLSNSPLQVDIQLLRIDSRESRNTPAEHLNNFYCNFEDIQDQNFDGLIVTGAPLGLVEFNDVAYWPQIKQVLEWSKDHVTSTLAVCWAVQAALNILYGIPKQTRTEKLSGVYEHHILHPHALLTRGFDDSFLAPHSRYADFPAALIRDYTDLEILAETEEGDAYLFASKDKRIAFVTGHPEYDAQTLAQEFFRDVEAGLDPDVPYNYFPHNDPQNTPRASWRSHGNLLFTNWLNYYVYQITPYDLRHMNPTLD
B3: metA F140W (protein)
chain: B2 chain with A140W
B4: metA V141A (protein)
chain: B2 chain with A140F, V141A
B5: metA F285W (protein)
chain: B2 chain with A140F, F285W
B6: metA V141Q (protein)
chain: B2 chain with A140F, V141Q
B7: metA V141W (protein)
chain: B2 chain with A140F, V141W
B8: metA F140Q (protein)
chain: B2 chain with A140Q
B9: metA F140P (protein)
chain: B2 chain with A140P
B10: metA F285A (protein)
chain: B2 chain with A140F, F285A
B11: aroD L45Q (protein)
chain: MKTVTVKDLVIGTGAPKIIVSLMAKDIASVKSEALAYREADFDIQEWRVDHYADLSNVESVMAAAKILRETMPEKPLLFTFRSAKEGGEQAISTEAYIALNRAAIDSGLVDMIDLELFTGDDQVKETVAYAHAHDVKVVMSNHDFHKTPEAEEIIARLRKMQSFDADIPKIALMPQSTSDVLTLLAATLEMQEQYADRPIITMSMAKTGVISRLAGEVFGSAATFGAVKKASAPGQISVNDLRTVLTILHQA
B12: aroD L78A (protein)
chain: B11 chain with Q45L, L78A
B13: aroD M203Q (protein)
chain: B11 chain with Q45L, M203Q
B14: aroD L78W (protein)
chain: B11 chain with Q45L, L78W
B15: aroD M203W (protein)
chain: B11 chain with Q45L, M203W

Target: Escherichia coli (laboratory strain)
Assay: barcode share on antibiotic plates over drug-free plates; higher = less susceptible
Method: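 A pool of E. coli strains, each edited to carry one amino-acid change in an essential protein, was grown for 48 h on minimal glucose agar with or without antibiotic; strain barcodes were sequenced; mean of two replicates.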

[1] = antibiotic: carbenicillin, 2× MIC (3.1 µg/mL)
[2] = antibiotic: gentamicin, 2× MIC (MIC 0.45 µg/mL)

Row | Protein | fold change of barcode share [1] | fold change of barcode share [2]
1 | B1 | 0.427 ± 0.23 | 0.00409 ± 0.00065
2 | B2 | 0.439 ± 0.11 | 0.0145 ± 0.014
3 | B3 | 1.52 ± 0.22 | 0.0276 ± 0.023
4 | B4 | 0.335 ± 0.096 | < 0.00233
5 | B5 | 0.348 ± 0.074 | 
6 | B6 | 0.718 ± 0.048 | 0.0128 ± 0.0081
7 | B7 | 1.15 ± 0.44 | 
8 | B8 | 0.732 ± 0.2 | 
9 | B9 | 0.626 ± 0.25 | 
10 | B10 | 0.263 ± 0.021 | < 0.0105
11 | B11 | 0.3283 ± 0.00042 | < 0.00323
12 | B12 | 0.325 ± 0.11 | < 0.00633
13 | B13 | 0.363 ± 0.23 | 0.0127 ± 0.0031
14 | B14 | 0.239 ± 0.11 | < 0.0084
15 | B15 | 0.412 ± 0.12 | < 0.00889
